Test results reported in PMC10516938, “Conformational dynamics of cohesin/Scc2 loading complex are regulated by Smc3 acetylation and ATP binding” (Nature Communications, 2023).
These are yes or no findings as the source states them, for the method shown. For part of these data: In cells and extracts the contact can be indirect. Some entries that bind do so weakly or less than the wild type.

T1: Smc3^QQ (S. cerevisiae) (UniProt P47037)
T1 sequence: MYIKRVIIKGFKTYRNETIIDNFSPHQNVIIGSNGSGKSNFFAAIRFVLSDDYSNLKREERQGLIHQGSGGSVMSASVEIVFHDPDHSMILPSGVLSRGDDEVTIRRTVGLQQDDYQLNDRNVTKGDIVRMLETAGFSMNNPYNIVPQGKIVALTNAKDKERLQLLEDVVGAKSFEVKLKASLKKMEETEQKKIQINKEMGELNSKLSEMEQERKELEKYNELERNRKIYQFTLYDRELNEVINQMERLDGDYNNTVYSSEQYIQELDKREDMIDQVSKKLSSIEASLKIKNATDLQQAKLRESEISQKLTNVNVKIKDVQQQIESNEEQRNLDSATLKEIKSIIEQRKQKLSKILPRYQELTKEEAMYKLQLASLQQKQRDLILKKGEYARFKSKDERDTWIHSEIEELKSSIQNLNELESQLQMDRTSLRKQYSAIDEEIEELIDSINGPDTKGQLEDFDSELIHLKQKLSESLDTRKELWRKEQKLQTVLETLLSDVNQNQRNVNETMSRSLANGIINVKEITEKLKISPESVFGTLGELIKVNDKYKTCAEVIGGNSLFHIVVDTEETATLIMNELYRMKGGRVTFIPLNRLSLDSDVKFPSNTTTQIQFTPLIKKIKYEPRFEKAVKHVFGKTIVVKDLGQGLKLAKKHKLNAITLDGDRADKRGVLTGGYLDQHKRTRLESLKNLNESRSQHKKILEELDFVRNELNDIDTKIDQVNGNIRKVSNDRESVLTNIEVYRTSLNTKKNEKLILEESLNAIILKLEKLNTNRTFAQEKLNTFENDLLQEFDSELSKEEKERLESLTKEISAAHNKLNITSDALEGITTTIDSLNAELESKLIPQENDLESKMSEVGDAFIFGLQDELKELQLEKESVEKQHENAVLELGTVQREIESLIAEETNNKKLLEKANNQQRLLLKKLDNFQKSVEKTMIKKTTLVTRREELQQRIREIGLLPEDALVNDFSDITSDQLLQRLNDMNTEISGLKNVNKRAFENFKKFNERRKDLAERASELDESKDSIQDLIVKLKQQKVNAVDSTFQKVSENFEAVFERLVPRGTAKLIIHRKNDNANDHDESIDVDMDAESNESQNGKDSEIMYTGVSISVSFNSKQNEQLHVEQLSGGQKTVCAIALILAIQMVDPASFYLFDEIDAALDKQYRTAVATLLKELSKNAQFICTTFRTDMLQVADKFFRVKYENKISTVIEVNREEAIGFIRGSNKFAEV

T2: Smc3 (wild type) (S. cerevisiae) (UniProt P47037)
T2 sequence: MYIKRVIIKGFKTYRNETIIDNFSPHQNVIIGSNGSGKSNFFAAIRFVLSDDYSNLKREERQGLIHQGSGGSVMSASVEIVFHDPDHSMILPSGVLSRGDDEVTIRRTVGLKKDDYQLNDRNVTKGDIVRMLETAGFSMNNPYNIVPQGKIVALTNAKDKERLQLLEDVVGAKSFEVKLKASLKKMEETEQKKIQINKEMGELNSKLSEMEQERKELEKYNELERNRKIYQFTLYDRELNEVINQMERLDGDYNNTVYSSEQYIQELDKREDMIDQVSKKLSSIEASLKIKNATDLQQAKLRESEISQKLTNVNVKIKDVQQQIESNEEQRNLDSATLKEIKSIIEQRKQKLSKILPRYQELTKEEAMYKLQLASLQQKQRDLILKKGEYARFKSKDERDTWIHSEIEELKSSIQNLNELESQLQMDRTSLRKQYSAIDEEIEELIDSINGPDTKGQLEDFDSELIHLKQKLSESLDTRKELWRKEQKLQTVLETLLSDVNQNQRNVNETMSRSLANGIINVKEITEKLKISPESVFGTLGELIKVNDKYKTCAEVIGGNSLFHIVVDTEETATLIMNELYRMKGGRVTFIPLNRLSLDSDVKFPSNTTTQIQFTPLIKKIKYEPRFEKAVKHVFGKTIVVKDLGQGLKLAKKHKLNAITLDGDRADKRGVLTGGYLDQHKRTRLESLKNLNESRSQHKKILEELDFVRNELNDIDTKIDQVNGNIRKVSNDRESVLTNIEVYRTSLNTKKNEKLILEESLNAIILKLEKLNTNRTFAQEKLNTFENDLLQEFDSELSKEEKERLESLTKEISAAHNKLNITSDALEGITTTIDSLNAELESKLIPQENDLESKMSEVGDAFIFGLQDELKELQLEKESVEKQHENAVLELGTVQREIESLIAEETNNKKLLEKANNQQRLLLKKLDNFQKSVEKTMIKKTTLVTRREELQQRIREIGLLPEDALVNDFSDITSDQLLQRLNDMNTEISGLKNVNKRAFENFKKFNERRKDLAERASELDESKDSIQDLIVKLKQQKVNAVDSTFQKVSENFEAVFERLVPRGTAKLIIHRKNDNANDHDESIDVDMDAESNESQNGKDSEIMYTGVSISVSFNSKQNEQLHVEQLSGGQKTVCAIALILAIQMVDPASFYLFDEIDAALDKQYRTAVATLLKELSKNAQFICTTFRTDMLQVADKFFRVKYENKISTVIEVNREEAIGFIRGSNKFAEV

T3: recombinant Scc1-2xStrepII (S. cerevisiae) (UniProt Q12158)
T3 sequence: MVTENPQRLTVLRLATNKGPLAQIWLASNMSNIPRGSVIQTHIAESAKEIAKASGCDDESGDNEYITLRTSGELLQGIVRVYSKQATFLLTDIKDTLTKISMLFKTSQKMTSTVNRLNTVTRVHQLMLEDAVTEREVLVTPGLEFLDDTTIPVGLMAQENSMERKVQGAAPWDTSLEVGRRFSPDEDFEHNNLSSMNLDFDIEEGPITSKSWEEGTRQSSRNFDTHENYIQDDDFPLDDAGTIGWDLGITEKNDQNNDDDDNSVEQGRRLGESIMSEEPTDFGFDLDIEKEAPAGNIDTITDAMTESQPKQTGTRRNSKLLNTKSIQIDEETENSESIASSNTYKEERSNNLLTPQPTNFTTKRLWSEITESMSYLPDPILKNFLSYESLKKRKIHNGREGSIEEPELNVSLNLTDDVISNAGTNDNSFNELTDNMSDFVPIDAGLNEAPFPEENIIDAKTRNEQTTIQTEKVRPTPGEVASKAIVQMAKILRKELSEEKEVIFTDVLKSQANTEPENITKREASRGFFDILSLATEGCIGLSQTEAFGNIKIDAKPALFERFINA

B1: Scc2 (co-immunoprecipitation of Fig. 2E) (protein, UniProt Q04002 1-1493)
chain: MSYPGKDKNIPGRIIEALEDLPLSYLVPKDGLAALVNAPMRVSLPFDKTIFTSADDGRDVNINVLGTANSTTSSIKNEAEKERLVFKRPSNFTSSANSVDYVPTNFLEGLSPLAQSVLSTHKGLNDSINIEKKSEIVSRPEAKHKLESVTSNAGNLSFNDNSSNKKTKTSTGVTMTQANLAEQYLNDLKNILDIVGFDQNSAEIGNIEYWLQLPNKKFVLTTNCLTKLQMTIKNITDNPQLSNSIEITWLLRLLDVMVCNIKFSKSSLKMGLDDSMLRYIALLSTIVLFNIFLLGKNDSNLHRESYIMEPVNFLSDLIESLKILTIEYGSLKIEFDTFQEALELLPKYIRNGPFLDDNVTAKLVYIFSDLLMNNDIEATTNIQFQSFWDNVKRISSDILVSLFGSFDQQRGFIIEELLSHIEKLPTKRIQKKLRKVGNQNIYITDFTFTLMSMLENINCYSFCNQMKDIAPENIDLLKNEYKKQEEFLFNIVEHINDTILERFFKNPSALRYVIDNFVQDLLLLISSPQWPVTEKILSSLLKRLLSVYSPSMQVSANIETICLQLIGNIGSTIFDIKCSTRDHEDNNLIKMINYPETLPHFFKSFEECIAYNETIKCRRSATRFLWNLRLGTILILEEYTKDAKEQIITVDNELKKILEQIKDGGLGPELENREADFSTIKLDYFSILHAFELLNLYDPYLKLILSLLAKDKIKLRSTAIKCLSMLASKDKVILSNPMVKETIHRRLNDSSASVKDAILDLVSINSSYFEFYQQINNNYNDDSIMVRKHVLRINEKMYDETNDIVTKVYVIARILMKIEDEEDNIIDMARLILLNRWILKVHEVLDQPEKLKEISSSVLLVMSRVAIMNEKCSQLFDLFLNFYLLNKEAHSKEAYDKITHVLTILTDFLVQKIVELNSDDTNEKNSIVDKQNFLNLLAKFADSTVSFLTKDHITALYPYMVSDEKSDFHYYILQVFRCTFEKLANFKQKFLYDLETTLLSRLPKMNVREIDEAMPLIWSVATHRHDTARVAKACSSCLSHLHPYINKANNEEAAIVVDGKLQRLIYLSTGFARFCFPKPSNDKIAFLQEGETLYEHITKCLLVLSKDKITHVIRRVAVKNLTKLCGNHPKLFNSRHVLHLLDKEFQSDQLDIKLVILESLYDLFLLEERKSVRNTGVNSTLSSNSILKKKLLKTNRVEFANDGVCSALATRFLDNILQLCLLRDLKNSLVAIRLLKLILKFGYTNPSHSIPTVIALFASTSQYIRHVAYELLEDLFEKYETLVFSSLSRGVTKAIHYSIHTDEKYYYKHDHFLSLLEKLCGTGKKNGPKFFKVLKRIMQSYLDDITDLTSTNSSVQKSIFVLCTNISNITFVSQYDLVSLLKTIDLTTDRLKEVIMDEIGDNVSSLSVSEEKLSGIILIQLSLQDLGTYLLHLYGLRDDVLLLDIVEESELKNKQLPAKKPDISKFSAQLENIEQYSSNGKLLTYFRKHVKDT
B2: recombinant Scc3 (protein, UniProt P40541 1-1150)
chain: MTAVRRSTRIRTKSQVIEEDYDDEQNTSAQHVESDKITAKTQHEEEEEQDTGESEESSSEDDYEDQDDDDYVDTATAKRKSRKRKPKSASNTSSKRQKKKPTSAQKSAVSHAPAYHRSKKDQDQYLEIAKDFQPTELFDILSTSEDVSIEELLREWLETYSENRDKFLQEFINLLLNCCGSVARVEDHDVHSNESSNETIGEIQLLFQRQKLHEFYLLISKENKKRKNFKMGPLYQNFAEFMTKLLEVANDLQLLYVESDEDDTQIVTGNLVLDLLTWLSSFSVCKIRCFRYISTLTLYLFQDYLTQQAVNLEKNYLAKLSKQLSLEEKKKRPNNKTLEKLESTIAETQGSKVVIDSIIDNIVKLCFVHRYKDVSDLIRSESMLHLSIWIKNYPEYFLKVTFLKYFGWLLSDNSVSVRLQVTKILPHLIIQNHNSKSTDNSAIRQVFERFKTKILEVAIRDVNLDVRIHSIQVLTEASSLGYLDDSEILIISSLMFDEEFDPFKTSSFNKRSKFLSTVAKFLARVIKEKFDEFIKTHEDLPKEVDGLEVGPVVQVGIFIKILNDSLIYHLKDCAEVDSRTKIRMLTQAAEFLSPYISTHLKTICNLLISDTESNELIQKLQNSANNNSDDEDVDDEELDITPLFPIDRNSTILYLNVFHGLCAGANNPKIQTKDSVKEIVLPLFYDLLNAASIESADILCPLLESFITFSLDDWISIGYETELKKITDKTIKAFMDSTIGNSKVDMKYDIFAKFIHHIHHFEKKELQEKFLNQIATLKIHLKKFLQEKMDPNNSRDDYKDLTCSLYELYINKLTILGRDYPIEVDEELLQLFLNNFVSRIPIMFQDFDDSTAQEINFKMLVLLATWNLEKWREIIEKVRDYENSISKDLRSVWKPIAAIIGRLNTLVISLAATNETFENINSLFYLKWSACTSLMDIIVAIKIFELKLPADATTWRYSMSEQFPFYLHDNASKVLLKIFLYLESLFAKQVDVQLERVADEDANLNDLPETGFFENIETEFLLFTVKLKGLMKLNILDERFASRVALNKEKLGPLFKKIVDDTIMENPEPNKKNIQKAKSNQTQREKAPLQPNSERETDHANTENNDPDIPMTIDLEPIEESSQNNSELAPIEEHPTVVDAIDNSDEITQD

Legend:
[1] = target: T1, Smc3^QQ (S. cerevisiae); assay: co-IP; co-immunoprecipitation of Scc2 with Smc3 or Smc3^QQ from exponentially grown yeast cells; lysis buffer 0.05 M Tris pH 7.5, 0.15 M NaCl, 5 mM EDTA, 0.5% NP-40
[2] = target: T2, Smc3 (wild type) (S. cerevisiae); assay: as above
[3] = target: T3, recombinant Scc1-2xStrepII (S. cerevisiae); assay: co-purification (StrepTrap affinity, then size exclusion); four cohesin subunits co-expressed in Sf9; captured by 2xStrepII on Scc1, eluted with desthiobiotin, Superose 6 Increase in HNTG (25 mM Hepes pH 8.0, 150 mM NaCl)

Binder | binding [1] | binding [2] | binding [3]
B1 | binds | binds | 
B2 |  |  | binds
